The campaign covered roughly 220,000 compounds. About 16,000 (7.3%) were called active. The shares of active, inactive and inconclusive entries below differ from those in the screen. The call rests on the fitted dose curve; in most records, active means well fitted inhibition curve with a large enough effect (not every such curve was filed as active); inconclusive means small, poorly fitted or top-dose-only effect, or another doubt; inactive means no such curve, though single readings can be large or run the other way. Potencies of inconclusive entries are left out as doubtful fits.
Each compound was assayed against Aldehyde dehydrogenase 1A1 (Homo sapiens) (UniProt P00352) (assay: qHTS Assay for Inhibitors of Aldehyde Dehydrogenase 1 (ALDH1A1)). Conditions: Purified ALDH1A1, NADH fluorescence, propionaldehyde substrate; series mostly up to 75.3 µM.
Sequence of UniProt P00352 (P00352 whole entry, looked up): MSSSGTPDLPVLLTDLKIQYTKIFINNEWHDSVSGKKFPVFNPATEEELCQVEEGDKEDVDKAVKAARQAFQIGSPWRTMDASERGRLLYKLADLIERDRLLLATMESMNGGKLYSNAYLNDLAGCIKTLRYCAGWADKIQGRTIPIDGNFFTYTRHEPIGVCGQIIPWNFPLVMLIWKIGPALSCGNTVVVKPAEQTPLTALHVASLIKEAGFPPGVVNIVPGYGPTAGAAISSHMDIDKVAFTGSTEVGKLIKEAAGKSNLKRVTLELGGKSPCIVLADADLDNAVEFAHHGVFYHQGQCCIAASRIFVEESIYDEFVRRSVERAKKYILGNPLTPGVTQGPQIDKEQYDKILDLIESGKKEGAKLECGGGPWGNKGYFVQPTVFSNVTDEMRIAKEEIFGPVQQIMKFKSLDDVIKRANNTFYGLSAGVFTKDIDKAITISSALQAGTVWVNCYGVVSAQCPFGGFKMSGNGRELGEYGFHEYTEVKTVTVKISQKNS
In the case of `CCCOC(=O)c1ccc(Nc2cc(C)nc3ncnn23)cc1`, the Potency was inconclusive [inhibitor, partial curve]. `CCCC(C)C(=O)Nc1ccncc1` (stereo not drawn) was tested, and the Potency was “inactive”. For `Clc1ccc(-c2csc(N3CCSCC3)n2)cc1`, the Potency was “inactive”. `CC(=O)c1ccc(OCc2ccc(C(=O)c3ccccc3)cc2)cc1` was tested, and the Potency was active: 11.2 µM. In the case of `COc1cc(CNc2ccc(C)c(C)c2)cc(OC)c1OC`, the Potency was active: 8.91 µM. In the case of `CC1CCN(C(c2cccs2)c2nnnn2Cc2ccccc2)CC1` (stereo not drawn), the Potency was active: 2 µM. `CCc1ccc(NC(=O)/C(C#N)=C/c2cn(CC(=O)O)c3ccccc23)cc1` was tested, and the Potency was “inactive”. In the case of `CC(=O)c1cccc(NC(=O)CN(C)Cc2ccc(OC(F)F)cc2)c1`, the Potency was active: 11.2 µM. In the case of `O=C(Cc1cccs1)NC1(C(=O)NC2CCCC2)CCCCC1`, the Potency was “inactive”. In the case of `CCOc1cccc(N2C(=O)CC(N3CCN(c4nc5ccccc5s4)CC3)C2=O)c1` (stereo not drawn), the Potency was “inactive”. With `Cc1ccc(N=Cc2c(O)n(-c3ccc4c(c3)OCO4)c(=O)c3ccccc23)cc1` the Potency was “inactive”. With `O=C(NC(=S)Nc1ccc(S(=O)(=O)N2CCCCC2)cc1)c1cccs1` the Potency was inconclusive [inhibitor, partial curve]. With `Cc1ccc(Cc2c[nH]c(=S)s2)cc1` the Potency was active: 8.91 µM. `CCN(CC)C(=O)CSc1nnc(-c2ccc(F)cc2)n1N` was tested, and the Potency was inconclusive [inhibitor, single point]. For `O=c1cc(O)c2ccccc2n1Cc1ccccc1Cl`, the Potency was inconclusive [inhibitor, single point]. With `CC(=O)NCCC(=O)Nc1nc(C)c(Cc2ccc3c(c2)OCO3)s1` the Potency was “inactive”. For `COc1ccc(CC(=O)NCc2nnc(SCC(=O)Nc3cccc(F)c3)n2C)cc1`, the Potency was “inactive”. `CC1CC(=O)N(c2ccc(NCc3ccc(Cl)cc3)c([N+](=O)[O-])c2)C1=O` (stereo not drawn) was tested, and the Potency was inconclusive [inhibitor, partial curve]. `N#Cc1cc2c(nc1SCc1ccncc1)CCC2` was tested, and the Potency was inconclusive [inhibitor, single point]. In the case of `COCCNc1ncnc2ccc(-c3cccc(NS(C)(=O)=O)c3)cc12`, the Potency was inconclusive [inhibitor, single point]. With `COc1ccc(Cl)cc1NC(=O)CN(C)C1CCCCC1` the Potency was “inactive”. In the case of `COc1ccc(C2CC(c3ccccc3)=NN2C(=O)COC(=O)c2nc3nc(C)cc(C)n3n2)cc1` (stereo not drawn), the Potency was inconclusive [inhibitor, partial curve]. For `COc1ccc(C)cc1NCC(=O)Nc1ccc(C(C)(C)C)cc1`, the Potency was inconclusive [inhibitor, single point].

Reference: PubChem BioAssay AID1030 (National Center for Advancing Translational Sciences (NCATS), 2008)
Potency means the concentration at half of the fitted maximal effect; tags describe the fitted curve by direction and shape.
